# PubChem BioAssay AID686978 (National Center for Advancing Translational Sciences (NCATS), 2013)
# Out of some 420,000 compounds screened, about 64,000 (15%) were called active. The shares of active, inactive and inconclusive entries below differ from those in the screen. Calls follow the shape of the dose curve; as a rule, active = well fitted inhibition curve with a large enough effect; inconclusive = small, poorly fitted or top-dose-only effect; inactive = flat fitted curve, though single readings scatter. Potencies of inconclusive entries are left out as doubtful fits. A structure can be active in one record and inactive in another.
# Test: qHTS for Inhibitors of human tyrosyl-DNA phosphodiesterase 1 (TDP1): qHTS in cells in absence of CPT; also: nearly all actives have a fitted effect of over 55% in size
# Settings: DT40 Tdp1-/- hTDP1 cells, no CPT, ATP luminescence, 48 h; activity change, negative = growth inhibition: at 46.2 µM (top of the series) unless noted
# How it was run: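 Compound effects on proliferation are scored in DT40 Tdp1-/-;hTDP1 cells in the absence of CPT. ATP levels (CellTiter-Glo luminescence) are recorded after a ≥48 hr, 37 °C incubation.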
# % is scaled to controls: 0 for no effect and ±100 for the full control effect; potency is read from the fitted curve at half-maximal effect; tags tell the direction and shape of the fitted curve.
Compound,Potency,"activity change, negative = growth inhibition"
COc1ccc(OC)c(CCNC(=O)c2cc3cccc4c3n2CCS4)c1,"inconclusive [inhibitor, single point]",
O=C(COc1ccc(Cl)cc1)NCCc1ccccn1,inactive,
NS(=O)(=O)c1cccc(NC(=O)COC(=O)CNC(=O)c2ccc(-c3ccccc3)cc2)c1,inactive,
O=C(N[C@@H]1CCC(=O)N(CC[C@H](Sc2ccc(Br)cc2)c2ccccc2)CC1)OCc1ccccc1,active: 18.4 µM,
CC(C)N(C(=O)CSc1ncnc2sc(-c3ccccc3)cc12)C(C)C,active: 14.6 µM,
O=C(Nc1ccccc1)Nc1nnc(Cc2ccc(F)cc2)s1,"inconclusive [inhibitor, single point]",
OCCN1CCN(CC#CCC(c2ccccc2)c2ccccc2)CC1,"inconclusive [inhibitor, single point]",
Cc1ccc2nc(-c3ccccc3C)c(CN(CC3CCCO3)C(=O)c3cccs3)cc2c1 (stereo not given),inactive,
O=C(CCCCCBr)N1CCC(CC2CC(c3ccc(Cl)cc3)=NO2)(C(=O)NCC2CCCCC2)CC1 (stereo not given),"inconclusive [inhibitor, single point]",
CCN(Cc1ccccc1)C(=O)CCS(=O)(=O)c1cc(Br)cc2c1N(C(=O)C1CC1)CC2,"inconclusive [inhibitor, single point]",
COc1ccc(OC)c(-c2cc(C(=O)N/N=C/c3cc(OC)c(OC)cc3OC)c3ccccc3n2)c1,active: 9.2 µM,
CCOC(=O)C1=C(NC(=S)NC(=O)c2ccccc2)c2ccccc2CC1C(C)C (stereo not given),active: 23.1 µM,
COC(=O)[C@]12CCCCC=C1N(Cc1ccc3c(c1)OCO3)C(=O)[C@H](CC(=O)NCC1CCCCC1)C2,"inconclusive [inhibitor, single point]",
O=C1CC(c2ccccc2)CC(=O)C1Sc1ccc(Cl)cc1 (stereo not given),"inconclusive [inhibitor, single point]",
CC1CCCCC1NC(=O)CCNS(=O)(=O)c1cc(Br)cnc1N (stereo not given),"inconclusive [inhibitor, single point]",
CC(=O)c1ccc(F)c(-c2cc(C)cc3c2OC(CNC(=O)c2csc(C)n2)C3)c1 (stereo not given),active: 20.6 µM,
COc1ccc(Cc2c(C3CCCCC3)nc3ccc(Cl)cn23)c(C)c1,"inconclusive [inhibitor, single point]",
COC(=O)c1sccc1NC(=O)CC1C(=O)NCCN1C(=O)Nc1cc(Cl)ccc1OC (stereo not given),"inconclusive [inhibitor, single point]",
O=C(CN1CCN(c2ccc(O)cc2)CC1)NCC(=O)Nc1ccc(F)c(F)c1F,"inconclusive [inhibitor, single point]",
S=C1Nc2ccccc2CS1,,inconclusive: -29.9% [inhibitor]
CCc1ccccc1N(C)C(=O)c1cc2c(Cl)nc3ccc(C)cc3c2s1,active: 18.4 µM,
Cc1ccc2[nH]c3c(=O)n(CC(=O)NCCCN4CCN(c5ccc(F)cc5)CC4)ncc3c2c1,active: 16.4 µM,
CC(=O)c1ccc(S(=O)(=O)N2CCCc3ccccc32)cc1,"inconclusive [inhibitor, single point]",

Compound,Potency,"activity change, negative = growth inhibition"
CC(=O)NCCn1c(SCC(=O)OCc2ccccc2)nc2ccccc2c1=O,"inconclusive [inhibitor, single point]",
Nc1nnc(SCc2coc(-c3ccc(Cl)cc3)n2)s1,"inconclusive [inhibitor, single point]",
c1ccc2[nH]ccc2c1,inactive,
CC1(C)OC(=O)C2=C(C[C@@H](C3CC3)O[C@H]2c2ccc(Cl)cc2)O1,inactive,
COc1ccc(Cl)cc1-c1noc([C@@H]2O[C@H](CO)[C@H](O)[C@H](O)[C@H]2O)n1,inactive,
Cc1cc(C(=O)N/N=C/c2ccncc2)c2ccccc2n1,inactive,
O=c1[nH]c(Cc2ccccc2Cl)nc2ccccc12,inactive,
Cc1onc(-c2ccccc2Cl)c1C(=O)NCCn1ccc2ccccc21,,inconclusive: -35.2% [inhibitor]
COc1ccc(N2CCN(C(=O)c3ccccc3N(C)S(=O)(=O)c3ccccc3)CC2)cc1,"inconclusive [inhibitor, single point]",
CCOc1ccc(Nc2nc(N)nc(CCl)n2)cc1,active: 5.8 µM,
N#Cc1ccccc1Cn1c(=O)n(-c2ccccc2)c(=O)c2c3c(sc21)CCC3,inactive,
O=C(NCc1cccc(F)c1)C1CCN(c2nn3cc(-c4ccc(F)cc4)nc3s2)CC1,"inconclusive [inhibitor, full curve, poor fit]",
C=CCN1C(=O)C(CC(=O)NCC)SC1=Nc1ccccc1CC (stereo not given),"inconclusive [inhibitor, partial curve]",
COc1ccc(CC(=O)Nc2nc(OCCN3CCCC3=O)cnc2-c2cccc(C(F)(F)F)c2)cc1,inactive,
Cc1onc(-c2ccccc2)c1C(=O)NNC(=S)NC(=O)c1ccc(Cl)cc1Cl,"inconclusive [inhibitor, single point]",
Cc1nn(-c2ccccc2)c2nc(C(F)(F)F)[nH]c(=O)c12,"inconclusive [inhibitor, single point]",
Cc1onc(-c2ccccc2)c1C(=O)N1CCOC12CCN(c1cccc(F)n1)CC2,"inconclusive [inhibitor, partial curve]",
Cc1cccc(C)c1NC(=O)c1nc(SC(C)C)ncc1Cl,"inconclusive [inhibitor, single point]",
O=C(Cn1nc(C(=O)O)c2ccccc2c1=O)NC12CC3CC(CC(C3)C1)C2,inactive,
O=C(Nc1ccc(O)c(-c2nc3ccccc3o2)c1)c1ccc(-c2cccc(Cl)c2)o1,"inconclusive [inhibitor, partial curve]",
O=C(OCC(=O)N1CCN(C(=O)c2ccco2)CC1)c1ccccc1Cc1ccccc1,"inconclusive [inhibitor, partial curve, poor fit]",
C/C(=C\c1ccccc1)C(=O)Nc1ccc(Cl)cn1,inactive,
